Source: publication PMC10542344 (Communications Biology, 2023)

Molecular target: the molecule itself
Assay: crystal structure; 11.003 Fab with IL-17A (34-155, C129S), 1.5-fold molar excess of Fab, complex purified by SEC; 1.9 Å

B1: recombinant human IL-17A ([…], Cys129 mutated to Ser) (ligand)
chain: not shown
notes: human interleukin-17A, […] of UniProt entry […] with Cys129 mutated to Ser; Homodimer in the crystal
B1: binds.
